{"source": "PubChem BioAssay (Tox21)", "note": "This list was built around the results that the source calls inconclusive (neither active nor inactive); the mix of calls is not that of the screen. Potencies of inconclusive entries are left out as doubtful fits. Calls of active or inactive are those of the source. Unless noted, calls follow the shape of the dose curve; as a rule, active = well fitted curve in the direction sought with a large enough effect in the repeat runs; inconclusive = weak or mixed curves; inactive = no such curve, though single readings can be large; an effect the other way counts as inactive or inconclusive. Potency is read from the fitted curve at half-maximal effect; tags tell the direction and shape of the fitted curve.", "data": [{"system": "not listed separately", "assay": "qHTS assay to identify small molecule antagonists of the estrogen related receptor (ERR) signaling pathway - cell viability counter screen (AID 1224818);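 also: viability measured after 17.5 h of compound exposure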", "conditions": "ERR reporter cell line viability counter screen; series mostly up to 46.1 µM", "outline": "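ERR reporter cells plated 6 h at 37 C/5% CO2, then compounds in DMSO pin-transferred and incubated 17.5 h at 37 C. Viability read as CellTiter-Fluor fluorescence after 30 min at 37 C.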", "values": [{"compound": "O=C(Nc1ccccc1)c1cc([N+](=O)[O-])ccc1Cl", "Potency": "inactive"}, {"compound": "CC(C)(C)C(=O)Oc1ccc(S(=O)(=O)Nc2ccccc2C(=O)NCC(=O)O)cc1", "Potency": "inactive"}, {"compound": "Cc1nc2sccn2c(=O)c1CCN1CCC(=C(c2ccc(F)cc2)c2ccc(F)cc2)CC1", "Potency": "inconclusive [cytotoxic, partial curve, poor fit]"}, {"compound": "OC(CN1CCC(Cc2ccc(F)cc2)CC1)c1ccc(Cl)cc1", "note": "(stereo unspecified)", "Potency": "inactive"}, {"compound": "C=Cc1c(C)c2cc3[nH]c(cc4nc(cc5nc(cc1[nH]2)C(C)=C5CCC(=O)O)C(CCC(=O)O)=C4C)c(C)c3C=C", "Potency": "inconclusive [cytotoxic]"}]}, {"system": "not listed separately", "assay": "qHTS assay to identify small molecule antagonists of the estrogen related receptor (ERR) signaling pathway (AID 1224819; also: nearly all actives have a fitted effect of over 50% in size)", "conditions": "ERR reporter cell line, luciferase inhibition; series mostly up to 46.1 µM", "outline": "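ERR reporter cells were plated at 2,000 cells/well and left 6 h at 37 C/5% CO2 before pin-tool transfer of compounds in DMSO. After 18 h at 37 C, One-Glo was added and luminescence was read 30 min later at room temperature.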", "values": [{"compound": "NCCS", "Potency": "inactive"}, {"compound": "Cc1ccc(=O)n(-c2ccccc2)c1", "Potency": "inactive"}, {"compound": "c1cnc2cc3c(cc2n1)C1CNCC3C1", "Potency": "inactive"}, {"compound": "CCCCC1C(=O)N(c2ccccc2)N(c2ccccc2)C1=O", "Potency": "inconclusive [inhibitor]"}, {"compound": "CN(C)C(=O)C(CCN1CCC(O)(c2ccc(Cl)cc2)CC1)(c1ccccc1)c1ccccc1", "Potency": "inconclusive [inhibitor]"}, {"compound": "OC(CCN1CCCCC1)(c1ccccc1)C1CCCCC1", "note": "(stereo unspecified)", "Potency": "inactive"}, {"compound": "C=Cc1c(C)c2cc3[nH]c(cc4nc(cc5nc(cc1[nH]2)C(C)=C5CCC(=O)O)C(CCC(=O)O)=C4C)c(C)c3C=C", "Potency": "inconclusive [inhibitor]"}]}, {"system": "estrogen-related receptor alpha (ERRalpha) with PGC-1alpha coactivator, human", "assay": "qHTS assay to identify small molecule antagonists of the estrogen related receptor signaling pathway with the pleiotropic PPARgamma coactivator (PGC) (AID 1224821; calls by dose curve; also: nearly all actives have a fitted effect of over 50% in size)", "conditions": "ERR/PGC reporter cell line, luciferase, antagonist mode; series mostly up to 46.1 µM", "outline": "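Luminescent read-out (One-Glo, 30 min at room temperature) following 18 h treatment of PGC/ERR cells at 37 C with compounds delivered in DMSO. Cells had settled 6 h at 37 C/5% CO2 before dosing.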", "values": [{"compound": "CCCCC1C(=O)N(c2ccccc2)N(c2ccccc2)C1=O", "Potency": "inconclusive [inhibitor, partial curve, poor fit]"}, {"compound": "CN(C)C(=O)C(CCN1CCC(O)(c2ccc(Cl)cc2)CC1)(c1ccccc1)c1ccccc1", "Potency": "inconclusive [inhibitor, partial curve, poor fit]"}, {"compound": "Cc1nc2sccn2c(=O)c1CCN1CCC(=C(c2ccc(F)cc2)c2ccc(F)cc2)CC1", "Potency": "inconclusive [inhibitor]"}, {"compound": "OC(CCN1CCCCC1)(c1ccccc1)C1CCCCC1", "note": "(stereo unspecified)", "Potency": "inactive"}, {"compound": "C=Cc1c(C)c2cc3[nH]c(cc4nc(cc5nc(cc1[nH]2)C(C)=C5CCC(=O)O)C(CCC(=O)O)=C4C)c(C)c3C=C", "Potency": "inconclusive [inhibitor, partial curve, poor fit]"}]}, {"system": "not listed separately", "assay": "qHTS assay to identify small molecule antagonists of the estrogen related receptor signaling pathway with the pleiotropic PPARgamma coactivator (PGC) cell viability counter screen (AID 1224822)", "conditions": "ERR/PGC reporter cell line viability counter screen; series mostly up to 46.1 µM", "outline": "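PGC/ERR cells were seeded at 2,000 cells/well, rested 6 h at 37 C/5% CO2, then given compounds in DMSO by pin tool and incubated 17.5 h at 37 C. Viability came from CellTiter-Fluor fluorescence after 30 min.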", "values": [{"compound": "Nc1nc2c(ncn2COC(CO)CO)c(=O)[nH]1", "Potency": "inactive"}, {"compound": "COC(=O)[C@@H]1[C@H]2C[C@H]3c4[nH]c5ccccc5c4CCN3C[C@@H]2CC[C@@H]1O", "Potency": "inactive"}, {"compound": "N[C@@H](Cc1c[nH]c2ccc(O)cc12)C(=O)O", "Potency": "inactive"}, {"compound": "NCCS", "Potency": "inactive"}, {"compound": "CC1=NS(=O)(=O)c2cc(Cl)ccc2N1", "Potency": "inconclusive [rising, partial curve, poor fit]"}, {"compound": "Cc1nc2sccn2c(=O)c1CCN1CCC(=C(c2ccc(F)cc2)c2ccc(F)cc2)CC1", "Potency": "inconclusive [cytotoxic, partial curve, poor fit]"}, {"compound": "OC(CCN1CCCCC1)(c1ccccc1)C1CCCCC1", "note": "(stereo unspecified)", "Potency": "inactive"}, {"compound": "C=Cc1c(C)c2cc3[nH]c(cc4nc(cc5nc(cc1[nH]2)C(C)=C5CCC(=O)O)C(CCC(=O)O)=C4C)c(C)c3C=C", "Potency": "inconclusive [cytotoxic, partial curve]"}, {"compound": "Cn1c(=O)c2[nH]cnc2n(C)c1=O", "Potency": "inactive"}]}]}
